The supplement of paper PMC12067093, “Discovery and optimisation of a covalent ligand for TRIM25 and its application to targeted protein ubiquitination” (Chemical Science, 2025)
About 21,000 targets were measured; listed, in parts, are those with the largest changes and a random draw of the rest.

Compound: CC1Cc2ccccc2N1C(=O)C1CCCN(C1)C(=O)CCl (mixture of isomers) [TRIM25 ligand 11 (diastereomer mixture)]
Assay: probe-labelled cysteine peptide fold change vs DMSO (competition) (log2 fold change); higher = less target engagement (more negative = stronger competition)
Conditions: THP-1, incubation time: 4 h
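Also: competitive chemoproteomic profiling in live THP-1 cells with an iodoacetamide desthiobiotin (IA-DTB) probe, comparing probe-labelled peptide intensities in compound-treated cells against DMSO-treated controls.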

UniProt Q14847, sequence (Q14847 whole entry, looked up): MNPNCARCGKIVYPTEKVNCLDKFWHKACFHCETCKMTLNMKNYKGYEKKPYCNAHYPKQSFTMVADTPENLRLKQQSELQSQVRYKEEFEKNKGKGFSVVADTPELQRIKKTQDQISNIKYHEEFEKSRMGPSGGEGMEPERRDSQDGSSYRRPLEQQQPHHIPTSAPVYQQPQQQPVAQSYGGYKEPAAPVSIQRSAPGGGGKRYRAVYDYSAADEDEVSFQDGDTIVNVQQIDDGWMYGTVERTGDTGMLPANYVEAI
UniProt Q9UHH9, sequence (Q9UHH9 whole entry): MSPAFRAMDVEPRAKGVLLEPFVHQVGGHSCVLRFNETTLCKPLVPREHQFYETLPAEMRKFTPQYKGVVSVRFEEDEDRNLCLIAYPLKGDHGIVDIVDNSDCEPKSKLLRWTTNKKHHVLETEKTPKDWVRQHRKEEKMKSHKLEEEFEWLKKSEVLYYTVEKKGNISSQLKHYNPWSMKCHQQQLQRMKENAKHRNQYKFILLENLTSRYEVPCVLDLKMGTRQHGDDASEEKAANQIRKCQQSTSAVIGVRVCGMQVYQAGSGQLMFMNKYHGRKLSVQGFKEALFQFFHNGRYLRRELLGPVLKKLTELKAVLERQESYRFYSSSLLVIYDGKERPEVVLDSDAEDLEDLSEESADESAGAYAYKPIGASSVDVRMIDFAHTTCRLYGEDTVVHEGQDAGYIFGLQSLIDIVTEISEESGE
UniProt P49916, sequence (P49916 whole entry, looked up): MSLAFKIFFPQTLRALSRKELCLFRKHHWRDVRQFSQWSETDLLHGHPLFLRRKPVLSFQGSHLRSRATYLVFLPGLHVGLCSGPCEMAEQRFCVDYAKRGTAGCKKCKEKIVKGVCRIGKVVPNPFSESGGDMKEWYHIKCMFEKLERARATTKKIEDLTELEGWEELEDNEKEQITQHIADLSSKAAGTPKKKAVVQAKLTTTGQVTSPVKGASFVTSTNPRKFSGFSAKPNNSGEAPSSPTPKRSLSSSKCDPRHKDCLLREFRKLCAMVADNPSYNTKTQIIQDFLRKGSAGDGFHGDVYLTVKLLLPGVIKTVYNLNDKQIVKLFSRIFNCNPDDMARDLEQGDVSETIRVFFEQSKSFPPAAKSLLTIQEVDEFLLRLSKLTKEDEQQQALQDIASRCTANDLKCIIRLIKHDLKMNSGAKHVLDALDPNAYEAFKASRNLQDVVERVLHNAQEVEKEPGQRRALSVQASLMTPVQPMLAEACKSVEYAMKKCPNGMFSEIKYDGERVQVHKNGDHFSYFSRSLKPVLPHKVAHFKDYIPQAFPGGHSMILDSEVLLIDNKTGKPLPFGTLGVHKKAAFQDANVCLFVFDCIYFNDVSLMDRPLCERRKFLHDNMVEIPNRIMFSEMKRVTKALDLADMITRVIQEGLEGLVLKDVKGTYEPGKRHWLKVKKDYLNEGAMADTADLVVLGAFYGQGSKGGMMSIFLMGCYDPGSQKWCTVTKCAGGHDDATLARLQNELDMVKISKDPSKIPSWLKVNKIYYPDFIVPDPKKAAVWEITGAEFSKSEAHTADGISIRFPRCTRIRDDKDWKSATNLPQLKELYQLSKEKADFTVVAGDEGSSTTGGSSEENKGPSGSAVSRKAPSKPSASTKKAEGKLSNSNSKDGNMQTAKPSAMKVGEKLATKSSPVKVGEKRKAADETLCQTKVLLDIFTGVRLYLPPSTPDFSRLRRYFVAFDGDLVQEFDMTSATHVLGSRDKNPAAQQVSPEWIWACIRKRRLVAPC
UniProt P18084, sequence (P18084 whole entry): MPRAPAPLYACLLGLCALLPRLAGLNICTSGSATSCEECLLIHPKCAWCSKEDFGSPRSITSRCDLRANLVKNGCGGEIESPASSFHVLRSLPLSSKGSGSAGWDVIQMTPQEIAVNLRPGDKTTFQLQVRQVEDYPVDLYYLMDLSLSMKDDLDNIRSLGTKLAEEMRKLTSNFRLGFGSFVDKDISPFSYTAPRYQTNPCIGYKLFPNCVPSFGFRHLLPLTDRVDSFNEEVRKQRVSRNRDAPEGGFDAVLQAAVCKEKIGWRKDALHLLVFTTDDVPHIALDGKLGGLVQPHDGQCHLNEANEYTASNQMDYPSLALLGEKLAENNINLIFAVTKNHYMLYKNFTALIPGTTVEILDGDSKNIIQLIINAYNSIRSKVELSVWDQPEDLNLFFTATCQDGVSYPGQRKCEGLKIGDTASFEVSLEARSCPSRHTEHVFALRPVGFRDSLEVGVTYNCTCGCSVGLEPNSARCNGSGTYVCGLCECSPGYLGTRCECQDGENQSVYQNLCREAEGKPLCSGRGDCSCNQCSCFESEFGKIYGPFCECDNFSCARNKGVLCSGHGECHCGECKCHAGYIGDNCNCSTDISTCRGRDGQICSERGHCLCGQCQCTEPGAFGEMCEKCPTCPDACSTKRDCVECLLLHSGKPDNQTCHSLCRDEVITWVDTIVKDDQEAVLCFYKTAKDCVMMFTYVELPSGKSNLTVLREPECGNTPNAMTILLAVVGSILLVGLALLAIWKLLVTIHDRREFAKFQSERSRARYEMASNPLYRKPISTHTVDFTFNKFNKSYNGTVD
UniProt P13612, sequence (P13612 whole entry, looked up): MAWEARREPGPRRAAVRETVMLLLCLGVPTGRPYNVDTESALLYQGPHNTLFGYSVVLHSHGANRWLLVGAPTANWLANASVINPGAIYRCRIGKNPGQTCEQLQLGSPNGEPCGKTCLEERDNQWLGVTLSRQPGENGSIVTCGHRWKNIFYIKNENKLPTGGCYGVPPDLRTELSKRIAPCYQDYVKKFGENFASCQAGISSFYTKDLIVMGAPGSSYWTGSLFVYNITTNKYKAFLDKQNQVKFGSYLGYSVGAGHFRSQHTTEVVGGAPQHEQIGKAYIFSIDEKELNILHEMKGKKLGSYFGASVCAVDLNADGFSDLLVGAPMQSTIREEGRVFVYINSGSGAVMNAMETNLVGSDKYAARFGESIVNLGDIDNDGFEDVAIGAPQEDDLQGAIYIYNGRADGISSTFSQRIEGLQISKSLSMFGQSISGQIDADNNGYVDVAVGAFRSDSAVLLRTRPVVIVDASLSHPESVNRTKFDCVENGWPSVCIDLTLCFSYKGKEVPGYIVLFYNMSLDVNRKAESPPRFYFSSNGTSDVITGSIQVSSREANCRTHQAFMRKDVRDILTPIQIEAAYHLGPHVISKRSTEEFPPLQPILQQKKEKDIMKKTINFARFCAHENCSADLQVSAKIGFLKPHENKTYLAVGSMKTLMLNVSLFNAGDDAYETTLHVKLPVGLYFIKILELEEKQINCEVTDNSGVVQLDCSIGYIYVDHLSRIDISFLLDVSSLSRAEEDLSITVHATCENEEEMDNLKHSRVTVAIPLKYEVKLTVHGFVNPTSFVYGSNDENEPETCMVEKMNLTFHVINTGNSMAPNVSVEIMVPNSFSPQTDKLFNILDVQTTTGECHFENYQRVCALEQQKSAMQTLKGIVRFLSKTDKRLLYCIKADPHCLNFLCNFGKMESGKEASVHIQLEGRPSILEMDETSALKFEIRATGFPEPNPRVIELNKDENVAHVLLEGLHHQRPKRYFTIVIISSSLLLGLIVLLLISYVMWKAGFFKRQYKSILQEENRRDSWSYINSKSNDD
UniProt Q9NVH2, sequence (Q9NVH2 whole entry, looked up): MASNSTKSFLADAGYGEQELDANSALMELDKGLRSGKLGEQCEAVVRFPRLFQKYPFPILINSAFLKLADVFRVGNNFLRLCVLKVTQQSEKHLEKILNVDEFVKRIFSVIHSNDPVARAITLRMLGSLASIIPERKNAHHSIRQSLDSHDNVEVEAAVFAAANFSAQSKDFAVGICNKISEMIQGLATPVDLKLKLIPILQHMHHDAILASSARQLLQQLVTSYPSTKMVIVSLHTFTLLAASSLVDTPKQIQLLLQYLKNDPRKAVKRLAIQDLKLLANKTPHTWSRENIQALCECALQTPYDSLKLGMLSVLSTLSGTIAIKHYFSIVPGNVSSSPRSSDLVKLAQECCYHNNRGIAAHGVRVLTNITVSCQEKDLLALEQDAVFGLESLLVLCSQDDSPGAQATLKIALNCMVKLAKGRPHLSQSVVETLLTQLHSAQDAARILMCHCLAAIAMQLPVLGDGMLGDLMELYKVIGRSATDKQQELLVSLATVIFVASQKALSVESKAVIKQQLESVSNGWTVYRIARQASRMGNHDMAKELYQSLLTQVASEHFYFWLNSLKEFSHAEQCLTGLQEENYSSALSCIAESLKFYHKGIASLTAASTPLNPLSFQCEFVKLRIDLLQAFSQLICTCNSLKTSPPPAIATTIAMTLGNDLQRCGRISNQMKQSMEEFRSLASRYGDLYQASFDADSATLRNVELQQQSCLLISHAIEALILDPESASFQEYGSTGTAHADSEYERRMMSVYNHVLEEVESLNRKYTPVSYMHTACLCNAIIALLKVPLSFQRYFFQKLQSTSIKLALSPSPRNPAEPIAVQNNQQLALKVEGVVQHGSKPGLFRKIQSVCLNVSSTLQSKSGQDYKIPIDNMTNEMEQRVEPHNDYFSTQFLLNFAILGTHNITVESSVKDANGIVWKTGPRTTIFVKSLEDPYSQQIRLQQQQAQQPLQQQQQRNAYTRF
UniProt Q8IU81, sequence (Q8IU81 whole entry, looked up): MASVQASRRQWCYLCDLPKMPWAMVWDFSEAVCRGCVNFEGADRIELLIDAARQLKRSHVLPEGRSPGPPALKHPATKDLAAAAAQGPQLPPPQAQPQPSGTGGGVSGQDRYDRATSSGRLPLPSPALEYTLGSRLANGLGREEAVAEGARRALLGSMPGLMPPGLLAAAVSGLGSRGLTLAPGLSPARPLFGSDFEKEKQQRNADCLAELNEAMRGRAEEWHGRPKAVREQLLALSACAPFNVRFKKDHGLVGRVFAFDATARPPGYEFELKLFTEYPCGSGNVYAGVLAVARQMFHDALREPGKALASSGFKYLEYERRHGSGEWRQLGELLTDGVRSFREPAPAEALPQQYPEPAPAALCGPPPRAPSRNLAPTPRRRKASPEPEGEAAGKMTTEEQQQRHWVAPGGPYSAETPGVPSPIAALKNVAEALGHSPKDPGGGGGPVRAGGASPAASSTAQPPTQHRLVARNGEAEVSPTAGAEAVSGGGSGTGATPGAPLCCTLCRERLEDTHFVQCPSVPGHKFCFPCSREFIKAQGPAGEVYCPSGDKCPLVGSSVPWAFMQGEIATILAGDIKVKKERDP

Target	probe-labelled cysteine peptide fold change (10 µM)	probe-labelled cysteine peptide fold change (50 µM)
ITPR1_Q14643_1255_LAHEFLQNFCAGNQQNQALLHK (UniProt Q14643)	0.145	0.261
LRRC8A_Q8IWT6_684_IPTQLFYCR (UniProt Q8IWT6)	0.014	0.351
LRRFIP1_Q32MZ4_750_CEMSEHPSQTVR (UniProt Q32MZ4)	-0.0228	-0.698
ITGB7_P26010_91_GCPLEELEEPR (UniProt P26010)	-0.0179	-0.0774
LDLR_P01130_34_NEFQCQDGK (UniProt P01130)	-0.0476	-0.115
LRPPRC_P42704_930_CVANNQVETLEK (UniProt P42704)	0.0147	0.0311
KLHL36_Q8N4N3_465_NLLCYDHR (UniProt Q8N4N3)	-0.0729	0.057
LSM2_Q9Y333_26_NDLSICGTLHSVDQYLNIK (UniProt Q9Y333)	0.117	0.189
KPNA5_O15131_427_PLCDLLTVMDSK<|>KPNA6_O60684_427_PLCDLLTVMDSK<|>KPNA1_P52294_429_PLCDLLTVMDSK (UniProt P52294+O60684+O15131)	0.157	0.0185
LASP1_Q14847_29+32_ACFHCETCK (UniProt Q14847)	-0.0749	-0.0823
KPNB1_Q14974_228_HFIMQVVCEATQCPDTR (UniProt Q14974)	0.0558	0.0409
LIG3_P49916_499_CPNGMFSEIKYDGER (UniProt P49916)	0.235	0.603
KCTD2_Q14681_192_VLQCQEEELTQMVSTMSDGWK<|>KCTD5_Q9NXV2_163_VLQCQEEELTQMVSTMSDGWK (UniProt Q9NXV2+Q14681)	0.121	-0.118
IRF2BP1_Q8IU81_15_RQWCYLCDLPK (UniProt Q8IU81)	0.192	0.12
ITGB2_P05107_590_VECSGR (UniProt P05107)	0.104	0.593
ITGB5_P18084_602_DGQICSER (UniProt P18084)	-0.145	0.568
IMPA2_O14732_136_QELEFGVIYHCTEER (UniProt O14732)	0.386	0.277
KPNB1_Q14974_158_ESTLEAIGYICQDIDPEQLQDK (UniProt Q14974)	-0.0564	0.109
ITGA4_P13612_902_ADPHCLNFLCNFGK (UniProt P13612)	0.0594	0.126

Target	probe-labelled cysteine peptide fold change (10 µM)	probe-labelled cysteine peptide fold change (50 µM)
LDHA_P00338_35_ITVVGVGAVGMACAISILMK (UniProt P00338)	-0.464	-0.161
KIF23_Q02241_412_MIVCVNPK (UniProt Q02241)	-0.114	0.268
JMJD1C_Q15652_990_DCHLHR (UniProt Q15652)	-0.817	-0.482
IPO4_Q8TEX9_42_APAALPALCDLLASAADPQIR (UniProt Q8TEX9)	-0.024	-0.077
ITGB2_P05107_400_GDCDGVQINVPITFQVK (UniProt P05107)	-0.0868	-0.0224
INSR_P06213_674_QAEDSELFELDYCLK (UniProt P06213)	-0.0631	-0.267
KIF5B_P33176_421_KCEEEIAK (UniProt P33176)	-0.0979	-0.0437
INTS7_Q9NVH2_42_LGEQCEAVVR (UniProt Q9NVH2)	0.0461	0.0411
KCTD5_Q9NXV2_25_GGIGAGLGGGLCR (UniProt Q9NXV2)	0.0823	-0.0264
IP6K2_Q9UHH9_104_GDHGIVDIVDNSDCEPK (UniProt Q9UHH9)	-0.664	-0.28
LDHA_P00338_163_VIGSGCNLDSAR (UniProt P00338)	0.0126	0.12
ITPR1_Q14643_1805_GEMSLAEVQCHLDK (UniProt Q14643)	0.154	0.0484
LRRC8D_Q7L1W4_645_MMNVAELELQNCELER (UniProt Q7L1W4)	0.643	0.269
IQGAP1_P46940_45_QNVAYEYLCHLEEAK (UniProt P46940)	0.174	0.169
KDM5A_P29375_838_AFVQQLFSLPCVISQAR (UniProt P29375)	-1.07	-0.206
LENG9_Q96B70_127_EEPFSAFCWDQPLAALGPGVLAVPQHR (UniProt Q96B70)	-0.211	0.0104
ILF2_Q12905_37_PFVPHIPFDFYLCEMAFPR (UniProt Q12905)	-0.189	-0.12
KMT2D_O14686_414_EPGPLQCEAK (UniProt O14686)	-0.0462	-0.238
